For some of these results: What follows is the remainder of the data, with few or none of the strong results. Only a part is listed here, and it is no random draw.
Tests used:
[1] = target: Mitogen-activated protein kinase kinase kinase kinase 4 (Homo sapiens) (UniProt O95819); settings: at 1 µM;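 further: reported figure is an averaged inhibition value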
[2] = target: Dual specificity mitogen-activated protein kinase kinase 1 (Homo sapiens) (UniProt Q02750); settings: at 0.1 µM
[3] = target: Dual specificity mitogen-activated protein kinase kinase 1 (Homo sapiens) (UniProt Q02750); settings: at 1 µM
[4] = target: Misshapen-like kinase 1 (Homo sapiens) (UniProt Q8N4C8); settings: at 0.1 µM
[5] = target: Misshapen-like kinase 1 (Homo sapiens) (UniProt Q8N4C8); settings: at 1 µM
[6] = target: T1, Serine/threonine-protein kinase 4 (Homo sapiens) (UniProt Q13043); settings: at 0.1 µM
T1 sequence (whole entry): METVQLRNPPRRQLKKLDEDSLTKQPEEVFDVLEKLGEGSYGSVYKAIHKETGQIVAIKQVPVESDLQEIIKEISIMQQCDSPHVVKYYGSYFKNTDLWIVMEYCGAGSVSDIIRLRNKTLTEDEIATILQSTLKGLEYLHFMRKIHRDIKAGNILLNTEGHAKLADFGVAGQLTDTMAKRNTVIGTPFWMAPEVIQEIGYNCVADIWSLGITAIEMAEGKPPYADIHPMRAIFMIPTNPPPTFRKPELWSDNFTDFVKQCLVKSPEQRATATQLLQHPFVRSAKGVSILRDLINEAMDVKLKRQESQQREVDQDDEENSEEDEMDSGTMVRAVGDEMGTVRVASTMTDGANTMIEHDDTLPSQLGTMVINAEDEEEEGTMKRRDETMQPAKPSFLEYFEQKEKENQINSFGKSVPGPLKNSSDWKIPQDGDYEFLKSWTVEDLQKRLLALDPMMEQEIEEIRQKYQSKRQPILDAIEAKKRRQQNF

[7] = target: T1, Serine/threonine-protein kinase 4 (Homo sapiens); settings: at 1 µM
[8] = target: T2, Serine/threonine-protein kinase 3 (Homo sapiens) (UniProt Q13188); settings: at 0.1 µM
T2 sequence (whole entry): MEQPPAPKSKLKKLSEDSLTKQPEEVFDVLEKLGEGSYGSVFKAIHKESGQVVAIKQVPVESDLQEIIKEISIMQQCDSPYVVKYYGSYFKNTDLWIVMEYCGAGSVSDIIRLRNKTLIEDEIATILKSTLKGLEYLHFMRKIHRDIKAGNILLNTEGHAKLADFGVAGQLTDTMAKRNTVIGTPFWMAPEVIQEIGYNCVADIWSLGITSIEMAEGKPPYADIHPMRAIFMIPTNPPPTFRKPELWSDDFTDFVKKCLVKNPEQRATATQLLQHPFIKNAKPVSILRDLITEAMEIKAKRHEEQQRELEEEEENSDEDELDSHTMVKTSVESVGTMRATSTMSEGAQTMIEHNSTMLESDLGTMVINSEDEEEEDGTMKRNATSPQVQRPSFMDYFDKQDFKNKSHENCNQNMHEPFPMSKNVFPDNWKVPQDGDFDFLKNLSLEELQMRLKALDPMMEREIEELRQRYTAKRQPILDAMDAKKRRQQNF

[9] = target: T2, Serine/threonine-protein kinase 3 (Homo sapiens); settings: at 1 µM
[10] = target: Serine/threonine-protein kinase 26 (Homo sapiens) (UniProt Q9P289); settings: at 0.1 µM
[11] = target: Serine/threonine-protein kinase 26 (Homo sapiens) (UniProt Q9P289); settings: at 1 µM
[12] = target: Serine/threonine-protein kinase PAK 1 (Homo sapiens) (UniProt Q13153); settings: at 0.1 µM
[13] = target: Serine/threonine-protein kinase PAK 1 (Homo sapiens) (UniProt Q13153); settings: at 1 µM
[14] = target: Serine/threonine-protein kinase PAK 2 (Homo sapiens) (UniProt Q13177); settings: at 0.1 µM
[15] = target: Serine/threonine-protein kinase PAK 2 (Homo sapiens) (UniProt Q13177); settings: at 1 µM
[16] = target: Serine/threonine-protein kinase PAK 3 (Homo sapiens) (UniProt O75914); settings: at 0.1 µM
[17] = target: Serine/threonine-protein kinase PAK 3 (Homo sapiens) (UniProt O75914); settings: at 1 µM
[18] = target: Serine/threonine-protein kinase PAK 5 (Homo sapiens) (UniProt Q9P286); settings: at 0.1 µM
[19] = target: Serine/threonine-protein kinase PAK 5 (Homo sapiens) (UniProt Q9P286); settings: at 1 µM
[20] = target: Serine/threonine-protein kinase PAK 6 (Homo sapiens) (UniProt Q9NQU5); settings: at 0.1 µM;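 further: mean PAK6 inhibition reported from the GSK PKIS screen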

Sequence of UniProt Q9P286 (Q9P286 whole entry, looked up): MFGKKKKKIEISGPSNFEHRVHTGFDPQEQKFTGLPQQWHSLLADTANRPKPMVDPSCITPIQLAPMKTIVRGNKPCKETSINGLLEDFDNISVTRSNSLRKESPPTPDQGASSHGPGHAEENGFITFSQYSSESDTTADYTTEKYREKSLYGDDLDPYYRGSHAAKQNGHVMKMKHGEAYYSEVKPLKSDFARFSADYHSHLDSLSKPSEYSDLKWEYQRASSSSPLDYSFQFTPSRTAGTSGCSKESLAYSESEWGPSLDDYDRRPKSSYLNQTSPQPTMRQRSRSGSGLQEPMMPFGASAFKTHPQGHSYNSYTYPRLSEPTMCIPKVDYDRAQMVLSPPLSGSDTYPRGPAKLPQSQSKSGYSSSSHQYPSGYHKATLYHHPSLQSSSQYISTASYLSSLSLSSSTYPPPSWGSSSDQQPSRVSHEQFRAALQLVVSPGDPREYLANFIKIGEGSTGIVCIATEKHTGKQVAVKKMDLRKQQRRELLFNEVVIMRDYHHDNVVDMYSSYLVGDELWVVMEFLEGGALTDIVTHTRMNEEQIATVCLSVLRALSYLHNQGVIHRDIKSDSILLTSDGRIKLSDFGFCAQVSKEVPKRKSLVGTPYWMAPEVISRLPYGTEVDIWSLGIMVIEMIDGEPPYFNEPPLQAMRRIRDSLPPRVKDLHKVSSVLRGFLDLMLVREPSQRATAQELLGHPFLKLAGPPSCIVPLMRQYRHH
Sequence of UniProt Q02750 (Q02750 whole entry): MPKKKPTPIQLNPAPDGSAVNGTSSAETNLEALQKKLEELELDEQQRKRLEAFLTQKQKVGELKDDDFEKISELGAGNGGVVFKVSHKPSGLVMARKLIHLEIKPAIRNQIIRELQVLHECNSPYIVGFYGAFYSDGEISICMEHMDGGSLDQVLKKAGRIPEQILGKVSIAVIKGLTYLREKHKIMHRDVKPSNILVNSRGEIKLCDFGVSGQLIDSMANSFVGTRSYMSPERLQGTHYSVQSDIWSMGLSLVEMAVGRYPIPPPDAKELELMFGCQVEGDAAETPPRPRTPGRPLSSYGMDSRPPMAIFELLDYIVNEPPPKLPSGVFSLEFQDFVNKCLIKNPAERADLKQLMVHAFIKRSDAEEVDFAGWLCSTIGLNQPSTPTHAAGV
Sequence of UniProt O95819 (O95819 whole entry, looked up): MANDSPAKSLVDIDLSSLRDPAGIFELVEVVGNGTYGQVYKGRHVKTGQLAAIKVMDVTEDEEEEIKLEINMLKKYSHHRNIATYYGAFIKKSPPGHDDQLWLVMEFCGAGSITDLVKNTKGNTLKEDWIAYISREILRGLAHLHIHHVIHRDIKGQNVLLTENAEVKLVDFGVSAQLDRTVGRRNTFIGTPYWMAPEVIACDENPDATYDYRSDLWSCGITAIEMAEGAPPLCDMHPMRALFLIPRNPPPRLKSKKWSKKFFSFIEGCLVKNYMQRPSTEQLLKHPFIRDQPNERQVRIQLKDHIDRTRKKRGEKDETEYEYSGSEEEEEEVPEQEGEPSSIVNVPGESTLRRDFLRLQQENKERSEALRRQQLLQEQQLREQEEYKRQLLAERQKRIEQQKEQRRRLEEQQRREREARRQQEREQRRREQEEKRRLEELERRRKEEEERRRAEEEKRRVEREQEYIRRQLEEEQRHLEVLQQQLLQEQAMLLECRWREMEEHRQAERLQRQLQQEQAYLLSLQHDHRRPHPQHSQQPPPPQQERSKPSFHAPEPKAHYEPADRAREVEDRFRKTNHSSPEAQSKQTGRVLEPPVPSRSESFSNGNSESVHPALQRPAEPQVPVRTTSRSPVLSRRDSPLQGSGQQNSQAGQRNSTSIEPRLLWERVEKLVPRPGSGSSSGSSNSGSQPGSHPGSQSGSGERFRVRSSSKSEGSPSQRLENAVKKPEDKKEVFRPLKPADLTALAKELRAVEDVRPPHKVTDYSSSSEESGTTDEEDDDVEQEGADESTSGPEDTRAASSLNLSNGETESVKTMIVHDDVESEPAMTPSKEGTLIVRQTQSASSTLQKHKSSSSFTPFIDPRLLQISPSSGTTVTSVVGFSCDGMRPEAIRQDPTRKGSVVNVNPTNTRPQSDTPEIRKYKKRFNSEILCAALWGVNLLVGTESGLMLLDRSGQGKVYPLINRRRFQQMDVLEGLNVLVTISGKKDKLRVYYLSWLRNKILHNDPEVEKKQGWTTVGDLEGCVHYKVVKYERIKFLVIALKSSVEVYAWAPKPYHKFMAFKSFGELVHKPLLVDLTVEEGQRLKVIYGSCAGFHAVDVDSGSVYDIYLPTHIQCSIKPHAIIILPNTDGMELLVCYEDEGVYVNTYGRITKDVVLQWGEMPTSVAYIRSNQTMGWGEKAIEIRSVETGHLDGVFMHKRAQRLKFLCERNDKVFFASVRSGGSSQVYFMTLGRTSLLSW
Sequence of UniProt Q9P289 (Q9P289 whole entry, looked up): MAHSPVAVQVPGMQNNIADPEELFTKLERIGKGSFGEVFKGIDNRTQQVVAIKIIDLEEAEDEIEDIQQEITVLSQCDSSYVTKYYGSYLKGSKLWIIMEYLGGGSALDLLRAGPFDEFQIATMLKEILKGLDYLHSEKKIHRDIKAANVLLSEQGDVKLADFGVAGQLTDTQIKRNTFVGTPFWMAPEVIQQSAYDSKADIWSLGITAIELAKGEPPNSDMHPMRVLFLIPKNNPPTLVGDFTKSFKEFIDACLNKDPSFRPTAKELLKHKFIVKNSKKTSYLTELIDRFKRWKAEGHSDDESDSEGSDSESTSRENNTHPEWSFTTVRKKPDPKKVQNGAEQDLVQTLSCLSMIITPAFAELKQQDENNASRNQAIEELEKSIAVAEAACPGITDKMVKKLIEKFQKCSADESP
Sequence of UniProt Q13153 (Q13153 whole entry): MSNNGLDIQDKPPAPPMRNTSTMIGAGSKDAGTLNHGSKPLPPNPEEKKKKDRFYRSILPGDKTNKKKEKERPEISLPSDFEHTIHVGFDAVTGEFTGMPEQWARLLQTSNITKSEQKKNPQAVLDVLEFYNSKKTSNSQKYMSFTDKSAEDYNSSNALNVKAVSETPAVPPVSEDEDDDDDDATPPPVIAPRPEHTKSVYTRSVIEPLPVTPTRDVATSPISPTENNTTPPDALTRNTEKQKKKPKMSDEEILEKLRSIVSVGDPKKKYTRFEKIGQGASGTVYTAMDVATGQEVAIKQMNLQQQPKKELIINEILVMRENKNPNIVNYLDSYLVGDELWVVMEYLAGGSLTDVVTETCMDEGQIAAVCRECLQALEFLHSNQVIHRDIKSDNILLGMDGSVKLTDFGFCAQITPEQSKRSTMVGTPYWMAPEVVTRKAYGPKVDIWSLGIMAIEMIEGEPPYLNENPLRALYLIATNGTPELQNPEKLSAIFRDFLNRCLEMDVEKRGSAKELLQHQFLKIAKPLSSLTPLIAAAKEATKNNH
Sequence of UniProt O75914 (O75914 whole entry, looked up): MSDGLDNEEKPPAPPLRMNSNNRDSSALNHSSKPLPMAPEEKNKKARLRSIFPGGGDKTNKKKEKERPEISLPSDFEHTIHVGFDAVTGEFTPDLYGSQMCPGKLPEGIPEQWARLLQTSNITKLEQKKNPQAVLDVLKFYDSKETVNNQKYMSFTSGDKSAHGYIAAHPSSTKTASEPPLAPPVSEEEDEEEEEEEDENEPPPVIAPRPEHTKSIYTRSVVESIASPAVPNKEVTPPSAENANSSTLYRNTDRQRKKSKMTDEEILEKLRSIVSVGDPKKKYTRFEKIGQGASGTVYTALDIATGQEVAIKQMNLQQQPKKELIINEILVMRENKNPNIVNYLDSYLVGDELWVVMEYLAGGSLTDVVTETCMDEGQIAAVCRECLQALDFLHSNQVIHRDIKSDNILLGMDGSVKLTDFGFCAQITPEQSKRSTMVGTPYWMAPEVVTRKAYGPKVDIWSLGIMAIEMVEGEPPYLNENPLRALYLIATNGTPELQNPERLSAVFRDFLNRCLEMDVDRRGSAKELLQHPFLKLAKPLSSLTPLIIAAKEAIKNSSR
Sequence of UniProt Q13177 (Q13177 whole entry): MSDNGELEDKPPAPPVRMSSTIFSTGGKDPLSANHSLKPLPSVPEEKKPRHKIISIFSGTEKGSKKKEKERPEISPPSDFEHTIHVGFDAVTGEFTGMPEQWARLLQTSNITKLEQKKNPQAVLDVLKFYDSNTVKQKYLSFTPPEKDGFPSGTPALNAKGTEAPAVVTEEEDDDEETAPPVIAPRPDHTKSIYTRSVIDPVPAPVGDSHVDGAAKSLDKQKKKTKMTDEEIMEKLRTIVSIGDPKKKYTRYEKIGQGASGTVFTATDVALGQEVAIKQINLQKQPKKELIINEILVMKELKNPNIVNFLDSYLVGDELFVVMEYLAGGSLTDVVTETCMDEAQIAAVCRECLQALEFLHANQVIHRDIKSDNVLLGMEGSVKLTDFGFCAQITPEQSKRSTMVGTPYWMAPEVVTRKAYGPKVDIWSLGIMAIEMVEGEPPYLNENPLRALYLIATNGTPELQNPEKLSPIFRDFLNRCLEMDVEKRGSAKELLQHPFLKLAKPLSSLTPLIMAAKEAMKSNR

| Compound | inhibition [1] [%] | inhibition [2] [%] | inhibition [3] [%] | inhibition [4] [%] | inhibition [5] [%] | inhibition [6] [%] | inhibition [7] [%] | inhibition [8] [%] | inhibition [9] [%] | inhibition [10] [%] | inhibition [11] [%] | inhibition [12] [%] | inhibition [13] [%] | inhibition [14] [%] | inhibition [15] [%] | inhibition [16] [%] | inhibition [17] [%] | inhibition [18] [%] | inhibition [19] [%] | inhibition [20] [%] |
| --- | --- | --- | --- | --- | --- | --- | --- | --- | --- | --- | --- | --- | --- | --- | --- | --- | --- | --- | --- | --- |
| CS(=O)(=O)c1ccc(Oc2nccc(-c3c(-c4ccc(F)cc4)ncn3C3CCNCC3)n2)cc1 | 5.21 | 4.29 | 4.33 | 6.5 | 6.72 | 3.25 | 3.52 | 4.45 | 5.07 | -1.12 | -2.95 | 7.47 | 3.75 | 1.73 | 1.12 | 4.48 | 3.6 | 2.6 | 0.7 | -3.38 |
| O=C(O)c1ccc(Oc2nccc(-c3c(-c4ccc(F)cc4)ncn3C3CCNCC3)n2)cc1 | 1.8 | 3.94 | 4.58 | 3.04 | 4.13 | 3.08 | 4.69 | 5.69 | 4.71 | -2.14 | 0.24 | 9.33 | 14.2 | 3.09 | 3.5 | 5.71 | 9.17 | 5.28 | 2.45 | -8.62 |
| NC(=O)CCc1ccccc1Oc1nccc(-c2c(-c3ccc(F)cc3)ncn2C2CCNCC2)n1 | -0.11 | -1.47 | 0.22 | -1.02 | -2.5 | -2.51 | -1.41 | -3.56 | -1.93 | -0.05 | -2.71 | -2.57 | -3.43 | -0.9 | -0.98 | -2.54 | -0.57 | -1.05 | 1.78 |  |
| COc1ccccc1Oc1nccc(-c2c(-c3ccc(F)cc3)ncn2C2CCNCC2)n1 | 13.5 | 4.01 | 4.05 | 10.4 | 15.5 | 9.34 | 10.6 | 12.3 | 12.1 | 2.84 | 8.06 | 5.34 | 6.28 | 1.72 | 1.81 | 5.72 | 6.6 | -0.33 | -0.66 | -6.9 |
| Fc1ccc(Oc2nccc(-c3c(-c4ccc(F)cc4)ncn3C3CCNCC3)n2)cc1 | 3.11 | 1.76 | 2.77 | 4.46 | 5.21 | 2.62 | 3.3 | 6.03 | 6.39 | -1.55 | 1.32 | 8.41 | 8.5 | 1.93 | 3.24 | 5.55 | 8.51 | 5.49 | 2.65 | -8.91 |
| Fc1ccc(-c2ncn(C3CCNCC3)c2-c2ccnc(Oc3cccc(F)c3)n2)cc1 | 9.3 | 3.69 | 5.25 | 7.28 | 7.56 | 4.08 | 5.81 | 5.64 | 7.21 | 0.02 | 1.08 | 8.78 | 11.6 | 2.09 | 1.6 | 5.36 | 9.66 | 2.77 | 1.46 | -6.58 |
| Fc1ccc(-c2ncn(C3CCNCC3)c2-c2ccnc(Oc3ccc(Cl)cc3)n2)cc1 | 1.49 | 1.79 | 3.05 | 0.72 | 1.27 | -0.24 | 0.91 | -1.52 | 0.79 | 0.49 | 0 | 5.82 | 3.96 | -0.15 | -0.01 | 0.29 | 1.84 | 0.4 | 0.8 |  |
| Fc1ccc(-c2ncn(C3CCNCC3)c2-c2ccnc(Oc3cccc(C(F)(F)F)c3)n2)cc1 | 8.02 | 5.6 | 5.27 | 6.52 | 8.63 | 3.99 | 5.74 | 8.08 | 7.64 | -0.46 | 4.79 | 9.43 | 7.76 | 2.26 | 2.63 | 6.83 | 5.85 |  | 1.97 | -8.11 |
| COc1ccccc1C1=C(Nc2ccccc2)C(=O)NC1=O | 10.6 | 4.12 | 3.81 | 3.76 | 7.59 | 10.3 | 44 | 9.92 | 34.2 | 1.37 | 15.3 | 5.15 | 8.18 | 1.63 | 1.82 | 3.13 | 3.76 | 1.79 | 2.53 | -8.52 |
| O=C1NC(=O)C(c2ccccc2)=C1Nc1ccccc1 | 19.6 | 6.95 | 5.61 | 8.4 | 17.7 | 9.67 | 31.7 | 7.25 | 22.4 | 2.05 | 6.5 | 6.89 | 6.87 | 3.42 | 3.13 | 5.6 | 6.57 | 4.73 | 4.32 | -4.44 |
| CC(C)(C)c1ccc(Oc2nccc(-c3c(-c4ccc(F)cc4)ncn3C3CCNCC3)n2)cc1 | 11.7 | 4.73 | 12.6 | 5.59 | 13 | 3.52 | 7.03 | 3.93 | 6.25 | -1.34 | -1.54 | 6.43 | 6.13 | 1.02 | 2.33 | 2.9 | 3.34 | 4.67 | 2.75 | -7.4 |
| O=C1NC(=O)C(c2ccccc2Cl)=C1Nc1cc(Cl)c(O)c(Cl)c1 | 5.34 | 4.15 | 4.62 | 3.87 | 4.7 | 7.23 | 11.9 | 8.39 | 11.1 | -1.02 | 3.41 | 5.47 | 2.78 | 1.74 | 2.21 | 3.89 | 2.79 | 7.33 | 2.96 | 2.18 |
| O=C1NC(=O)C(c2cccc([N+](=O)[O-])c2)=C1Nc1cc(Cl)c(O)c(Cl)c1 | 4.07 | 2.59 | 2.69 | 3.34 | 2.65 | 13 | 56.5 | 12.4 | 50.7 | 3.03 | 10.5 | 1.01 | -0.91 | 0.79 | -1 | 2.75 | 0.99 | -0.76 | -2.87 | 2.58 |
| Cc1cccc(Oc2nccc(-c3c(-c4ccc(F)cc4)ncn3C3CCNCC3)n2)c1C | 7.88 | 3.52 | 4.43 | 6.85 | 9.99 | 4.49 | 7.42 | 6.1 | 6.56 | -2.61 | -1.91 | 7.98 | 5.85 | 1.4 | 1.47 | 4.86 | 5.21 | 1.56 | 2.54 | -7.57 |

Reference: ChEMBL document CHEMBL1961873, “Compounds: GSK PKIS; Assays: Nanosyn kinase panel” (2012)
